# Measured values: the supplement of paper PMC11417369
# ± gives the standard deviation of the averaged measurements. The list shows a part of the results.
# Test system: PfAP2-G AP2 domain (GST-tagged)
# Assay: gcPBM binding intensity (ln(normalized median fluorescence intensity)); higher = stronger DNA binding
# In short: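 Binding intensity is the highest Masliner-normalised natural-log median intensity over replicate spots in either probe orientation. To obtain it, GST-tagged P. falciparum DNA-binding domains made in E. coli were incubated for 1 h on an Agilent 4 × 180k array of primer-extended double-stranded 36-bp intergenic genomic probes plus negative controls. Detection used Alexa488 anti-GST antibody with scanning at 488 nm.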
row,Sequence,gcPBM binding intensity (ln)
1,AATTAATGGGTACATACACACATATATACATACATA [CACACA_site742],11.4 ± 1
2,AATTAAATGTTTCTAAGATATACGACCAATGTATTT [CACACA_negctrl_site1694],10.7 ± 0.47
3,TGTATTATCTCTTATGAACACACATTTTTATTTTCA [CACACA_site9107],9.95 ± 0.014
4,ATGTTAATTAATGAGGTGCATTGAATATTTCAATAA,9.99 ± 0.21
5,CATCAATGCTAATTATGTACTTACATAAATAACCCT [XGTACX_site968],11.2 ± 0.81
6,ATACCTAAAAAATATACACACATATATATAAATATA [CACACA_site2580],9.805 ± 0.064
7,ATGATCTGTTTGTTTGTGCACATATATATATATTAA,10.7 ± 0.38
8,TGGTGAAAAATATAAATATAAATAAATATATATATA [CACACA_negctrl_site1725],9.57 ± 0.54
9,AGAAGAAAACAAAACACACACATATATCTTAATATA [CACACA_site2231],9.76 ± 0.15
10,AAAAAAAAAAACTTTGCATGTAATAATAAAAAAAAA [TGCATGCA_site81],9.845 ± 0.064
11,ATGTAGAGTAATAGTTGTACAAGGTGTATATCTCAT [XGTACX_site6370],11.4 ± 0.79
12,TTTATATTTTTTTTTGCACACTTTAAAAAAATATAT [CACACA_site1146],10.1 ± 0.32
13,TATATATTACATAAAACACACAAAAAAAAAATTAAA [CACACA_site3882],9.79 ± 0.12
14,GAATATTTATGATGAACTATTAATTAATTTTACATA [GTGCAC_negctrl_site353],9.68 ± 0.085
15,AAATAAATTGAAGATACATGCATATTTTTTTTTTAT [TGCATGCA_site686],9.63 ± 0.19
16,ATGTCTTAAAAATTAAAACACACGTTCACTTTCATA [CACACA_site3385],9.88 ± 0.15
17,AGATCATAATATTATACACACATTAGATATAGGTAA [CACACA_site6809],9.8 ± 0.2
18,AGAGTTAAACGATATATATAAATATATATATATATA [GTGCAC_negctrl_site316],9.7 ± 0.49
19,AAAAAAAAAAACGACAGTACAATTATAATTTATATT [XGTACX_site2365],10.5 ± 0.26

row,Sequence,gcPBM binding intensity (ln)
1,AAAAATTATAAAAAACAAATATTAAATAATTATTAA [GTGCAC_negctrl_site125],9.51 ± 0.21
2,TTGATGGGAAAAAACTTTTTTTTCTTTTTTTCTTTC [CACACA_negctrl_site328],9.41 ± 0.32
3,TTTTTTTTTTTTTTTTTTTTTTTGCTCAGTGTGGTA [CACACA_negctrl_site29],9.95 ± 0.56
4,AAATGTAATTTGTCTTTTATTTATATTTGACATGAT [TGCATGCA_negctrl_site520],9.62 ± 0.11
5,ATATTAATGATATATACACACATAAGTATTGTATAT [CACACA_site7844],9.89 ± 0.13
6,TTATACTAAATGAACACACACACATATATATATATA [CACACA_site99],10.4 ± 0.64
7,TATCACCCACCATGAAGTACATATTACCATTTGATG [XGTACX_site845],11.3 ± 0.82
8,ATAAATAAATAAAAGCGTACATATATATAAAATATA [XGTACX_site8107],11.6 ± 0.88
9,AAAAGGAAGATATATACACACATACAAATATTTATA [CACACA_site7093],9.895 ± 0.064
10,AAAAAAAAAAAAAAAAGTACATATATATATTTATAT [XGTACX_site5893],11.7 ± 1
11,TATATATATATATAATGTACTTATATTTTTTTGAGG [XGTACX_site2638],11.2 ± 0.79
12,ATATGTATAAGTATGTATATTTATTTATACTTATGT [GTGCAC_negctrl_site221],10.1 ± 0.2
13,TTAATTAAAACGAATACACACATAAATATGTAAAAG [CACACA_site6707],10.16 ± 0.042
14,TATATGGTATGTATTACACACATATCACATATAGAT [CACACA_site7426],9.94 ± 0.099
15,TTTTAAATTTAATTTACACACTTTTCATAGCATTGA [CACACA_site3794],9.9 ± 0.042
16,TTCTATTCACATTTTACACACGTCCATCGCATTTTA [CACACA_site3453],10.6 ± 0.2
17,TTATATTTATAAAATTGTATACCCCTTCTAACTTTC [CACACA_negctrl_site250],10.2 ± 0.23
18,ATTGTGCTCATCAGCACACACAACATCATGTAATAA [CACACA_site1863],10.2 ± 0.38
19,TATATATATGGTTTAACACACGAGATAAAAGTATAT [CACACA_site2867],10.08 ± 0.042

row,Sequence,gcPBM binding intensity (ln)
1,ACAGACGTTCAAAGGTGTACGCAAAATGAATAATAT [XGTACX_site7565],11.6 ± 1
2,GTAAATCGACACATACGTACATACATTTATATATAT [XGTACX_site3143],11.4 ± 0.94
3,AAAAAAAAGAAAAACACACACATATATATATATAAT [CACACA_site4707],9.72 ± 0.042
4,ACATTTAATGTTATATGTACATAATATTATAAGTAT [XGTACX_site1393],11.2 ± 0.64
5,CATATGGCAATAATTACATGCAAAAAAAAAAAAAAA [TGCATGCA_site578],9.82 ± 0.63
6,AATGTAAAAGTAAACACACACATATATTTATACATA [CACACA_site7218],10.1 ± 0.13
7,AGCCATATCTTTTTTGCACACACTACAATAAAACAA [CACACA_site1650],10.4 ± 0.29
8,TTCTTATTTAATGTATCACACACGAGAATAAAAAAT [CACACA_site8992],10.3 ± 0.35
9,TATACATATATATATTGTACATATTATATATATATA [XGTACX_site3286],10.9 ± 0.56
10,ATATATATATATATATGTACATATTGTATCTTATAC [XGTACX_site5466],11.2 ± 0.61
11,ACATTATATTTGGACTGTACTAATATATTGTTATAT [XGTACX_site5573],11.4 ± 0.81
12,AAAAACCATTGGCACACACACATAATATATAATATA [CACACA_site4903],10.2 ± 0.3
13,AAGAAAGGTTAAACATGTACATAAATATTTTACATA [XGTACX_site5024],11.2 ± 0.72
14,TTATATTTAGTATATGCACACTTTATGTTTGTTATT [CACACA_site5163],9.955 ± 0.035
15,TATAAATACGAACACACACACCTTATAATTACTACT [CACACA_site7827],10.18 ± 0.085
16,TCTTGTTTATCAACAGCACACACAACAACAACAACA [CACACA_site8046],10.1 ± 0.23
17,TATATATATACAGTTGCATGTTGTGTTTAAAATTTT [TGCATGCA_site816],9.99 ± 0.26
18,TGTTAAAAAATGGATGCACACATTAAATAAAAAGTA [CACACA_site1660],10.28 ± 0.042
